Reference: publication PMC8237747 (Journal for Immunotherapy of Cancer, 2021)

How the values were obtained:
[1] = molecular target: HZ-L-Yr-16-Fc; experiment: flow cytometry on cells
[2] = molecular target: HZ-L-Yr-16-Fc; experiment: ELISA

B1: human 4-1BB overexpressed on CHO cells (CHO-hu4-1BB) (receptor)
chain: not shown
B1: binds [1].

B2: Human 4-1BB (recombinant protein, ACRO Biosystems) (receptor)
chain: not shown
B2: binds [2].
